# According to the supplement of paper PMC8728848:
# The list shows a part of the results.
# Experiments:
# Assay in all cases: glycan array binding signal (z-score within array); higher = stronger binding
# Conditions in all cases: glycan notation: IUPAC condensed, linker removed
# [1] = biological target: Fuc(a1-2)[Gal(a1-3)]Gal(b1-4)[Fuc(a1-3)]GlcNAc(b1-3)GalNAc
# Method in brief: (§1)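 The Consortium for Functional Glycomics database supplied 3228 glycan arrays, of which those lacking an available protein sequence were dropped. The binding signal, a within-array Z-score, was averaged across arrays of the same protein sequence and across linkers. Negative scores can be read as non-binding.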
# [2] = biological target: Fuc(a1-2)[Gal(a1-4)]Gal(b1-4)GlcNAc
# Method in brief: as §1
# [3] = biological target: Fuc(a1-2)[GalNAc(a1-3)]Gal
# Method in brief: as §1
# [4] = biological target: Fuc(a1-2)[GalNAc(a1-3)]Gal(b1-3)GalNAc(a1-3)[Fuc(a1-2)]Gal(b1-4)GlcNAc
# Method in brief: as §1
# [5] = biological target: Fuc(a1-2)[GalNAc(a1-3)]Gal(b1-3)GalNAc(b1-3)Gal(a1-4)Gal(b1-4)Glc
# Method in brief: as §1
# [6] = biological target: Fuc(a1-2)[GalNAc(a1-3)]Gal(b1-3)GlcNAc
# Method in brief: as §1
# [7] = biological target: Fuc(a1-2)[GalNAc(a1-3)]Gal(b1-3)GlcNAc(b1-2)Man(a1-3)[Fuc(a1-2)[GalNAc(a1-3)]Gal(b1-3)GlcNAc(b1-2)Man(a1-6)]Man(b1-4)GlcNAc(b1-4)GlcNAc
# Method in brief: as §1
# [8] = biological target: Fuc(a1-2)[GalNAc(a1-3)]Gal(b1-3)GlcNAc(b1-2)Man(a1-3)[Fuc(a1-2)[GalNAc(a1-3)]Gal(b1-3)GlcNAc(b1-2)Man(a1-6)]Man(b1-4)GlcNAc(b1-4)[Fuc(a1-6)]GlcNAc
# Method in brief: as §1
# [9] = biological target: Fuc(a1-2)[GalNAc(a1-3)]Gal(b1-3)GlcNAc(b1-3)GalNAc
# Method in brief: as §1
# [10] = biological target: Fuc(a1-2)[GalNAc(a1-3)]Gal(b1-3)GlcNAc(b1-6)GalNAc
# Method in brief: as §1
# [11] = biological target: Fuc(a1-2)[GalNAc(a1-3)]Gal(b1-4)Glc
# Method in brief: as §1
# [12] = biological target: Fuc(a1-2)[GalNAc(a1-3)]Gal(b1-4)GlcNAc
# Method in brief: as §1
# [13] = biological target: Fuc(a1-2)[GalNAc(a1-3)]Gal(b1-4)GlcNAc(b1-2)Man
# Method in brief: as §1
# [14] = biological target: Fuc(a1-2)[GalNAc(a1-3)]Gal(b1-4)GlcNAc(b1-2)Man(a1-3)[Fuc(a1-2)[GalNAc(a1-3)]Gal(b1-4)GlcNAc(b1-2)Man(a1-6)]Man(b1-4)GlcNAc(b1-4)GlcNAc
# Method in brief: as §1
# [15] = biological target: Fuc(a1-2)[GalNAc(a1-3)]Gal(b1-4)GlcNAc(b1-2)Man(a1-3)[Fuc(a1-2)[GalNAc(a1-3)]Gal(b1-4)GlcNAc(b1-2)Man(a1-6)]Man(b1-4)GlcNAc(b1-4)[Fuc(a1-6)]GlcNAc
# Method in brief: as §1
# [16] = biological target: Fuc(a1-2)[GalNAc(a1-3)]Gal(b1-4)GlcNAc(b1-3)Gal(b1-4)GlcNAc
# Method in brief: as §1
# [17] = biological target: Fuc(a1-2)[GalNAc(a1-3)]Gal(b1-4)GlcNAc(b1-3)Gal(b1-4)GlcNAc(b1-3)Gal(b1-4)GlcNAc
# Method in brief: as §1
# [18] = biological target: Fuc(a1-2)[GalNAc(a1-3)]Gal(b1-4)GlcNAc(b1-3)GalNAc
# Method in brief: as §1
# [19] = biological target: Fuc(a1-2)[GalNAc(a1-3)]Gal(b1-4)GlcNAc(b1-3)[Fuc(a1-2)[GalNAc(a1-3)]Gal(b1-4)GlcNAc(b1-6)]GalNAc
# Method in brief: as §1
# [20] = biological target: Fuc(a1-2)[GalNAc(a1-3)]Gal(b1-4)GlcNAc(b1-6)GalNAc
# Method in brief: as §1
# [21] = biological target: Fuc(a1-2)[GalNAc(a1-3)]Gal(b1-4)[Fuc(a1-3)]GlcNAc
# Method in brief: as §1
# [22] = biological target: Fuc(a1-2)[GalNAc(a1-3)]Gal(b1-4)[Fuc(a1-3)]GlcNAc(b1-3)GalNAc
# Method in brief: as §1
# [23] = biological target: Fuc(a1-2)[GalNAc(a1-4)]Gal(b1-4)GlcNAc
# Method in brief: as §1
# [24] = biological target: Fuc(a1-2)[GalNAc(b1-3)]Gal
# Method in brief: as §1
# [25] = biological target: Fuc(a1-3)GlcNAc
# Method in brief: as §1
# [26] = biological target: Fuc(a1-3)[Gal(b1-4)]Glc6S
# Method in brief: as §1
# [27] = biological target: Fuc(a1-3)[Gal(b1-4)]GlcNAc
# Method in brief: as §1
# [28] = biological target: Fuc(a1-3)[Gal(b1-4)]GlcNAc(b1-2)Man
# Method in brief: as §1
# [29] = biological target: Fuc(a1-3)[Gal(b1-4)]GlcNAc(b1-2)Man(a1-3)[Fuc(a1-3)[Gal(b1-4)]GlcNAc(b1-2)Man(a1-6)]Man(b1-4)GlcNAc(b1-4)GlcNAc
# Method in brief: as §1
# [30] = biological target: Fuc(a1-3)[Gal(b1-4)]GlcNAc(b1-2)Man(a1-3)[Fuc(a1-3)[Gal(b1-4)]GlcNAc(b1-2)Man(a1-6)]Man(b1-4)GlcNAc(b1-4)[Fuc(a1-6)]GlcNAc
# Method in brief: as §1
# [31] = biological target: Fuc(a1-3)[Gal(b1-4)]GlcNAc(b1-3)Gal(b1-3)[Fuc(a1-4)]GlcNAc
# Method in brief: as §1
# [32] = biological target: Fuc(a1-3)[Gal(b1-4)]GlcNAc(b1-3)Gal(b1-4)[Fuc(a1-3)]GlcNAc
# Method in brief: as §1
# [33] = biological target: Fuc(a1-3)[Gal(b1-4)]GlcNAc(b1-3)Gal(b1-4)[Fuc(a1-3)]GlcNAc(b1-3)Gal(b1-4)[Fuc(a1-3)]GlcNAc
# Method in brief: as §1
# [34] = biological target: Fuc(a1-3)[Gal(b1-4)]GlcNAc(b1-3)GalNAc
# Method in brief: as §1
# [35] = biological target: Fuc(a1-3)[Gal(b1-4)]GlcNAc(b1-6)GalNAc
# Method in brief: as §1
# [36] = biological target: Fuc(a1-3)[Gal(b1-4)]GlcNAc(b1-6)[Gal(b1-3)GlcNAc(b1-3)]Gal(b1-4)Glc
# Method in brief: as §1
# [37] = biological target: Fuc(a1-3)[Gal(b1-4)]GlcNAc6S
# Method in brief: as §1
# [38] = biological target: Fuc(a1-3)[Gal3S(b1-4)]Glc
# Method in brief: as §1
binder,measurement,setting,value
"SRA-1 (Homo sapiens), P21757 (protein) MEQWDHFHNQQEDTDSCSESVKFDARSMTALLPPNPKNSPSLQEKLKSFKAALIALYLLVFAVLIPLIGIVAAQLLKWETKNCSVSSTNANDITQSLTGKGNDSEEEMRFQEVFMEHMSNMEKRIQHILDMEANLMDTEHFQNFSMTTDQRFNDILLQLSTLFSSVQGHGNAIDEISKSLISLNTTLLDLQLNIENLNGKIQENTFKQQEEISKLEERVYNVSAEIMAMKEEQVHLEQEIKGEVKVLNNITNDLRLKDWEHSQTLRNITLIQGPPGPPGEKGDRGPTGESGPRGFPGPIGPPGLKGDRGAIGFPGSRGLPGYAGRPGNSGPKGQKGEKGSGNTLTPFTKVRLVGGSGPHEGRVEILHSGQWGTICDDRWEVRVGQVVCRSLGYPGVQAVHKAAHFGQGTGPIWLNEVFCFGRESSIEECKIRQWGTRACSHSEDAGVTCTL",glycan array binding signal (z-score),[1],-0.115
same,glycan array binding signal (z-score),[2],0.081
same,glycan array binding signal (z-score),[3],-0.218
same,glycan array binding signal (z-score),[4],-0.428
same,glycan array binding signal (z-score),[5],-0.415
same,glycan array binding signal (z-score),[6],-0.384
same,glycan array binding signal (z-score),[7],0.613
same,glycan array binding signal (z-score),[8],-0.338
same,glycan array binding signal (z-score),[9],-0.047
same,glycan array binding signal (z-score),[10],0
same,glycan array binding signal (z-score),[11],-0.333
same,glycan array binding signal (z-score),[12],-0.192
same,glycan array binding signal (z-score),[13],0.119
same,glycan array binding signal (z-score),[14],-0.626
same,glycan array binding signal (z-score),[15],0.761
same,glycan array binding signal (z-score),[16],-0.293
same,glycan array binding signal (z-score),[17],0.422
same,glycan array binding signal (z-score),[18],0.211
same,glycan array binding signal (z-score),[19],-0.401
same,glycan array binding signal (z-score),[20],-0.464
same,glycan array binding signal (z-score),[21],1.28
same,glycan array binding signal (z-score),[22],21.8
same,glycan array binding signal (z-score),[23],-0.165
same,glycan array binding signal (z-score),[24],-0.083
same,glycan array binding signal (z-score),[25],-0.062
same,glycan array binding signal (z-score),[26],1.43
same,glycan array binding signal (z-score),[27],-0.229
same,glycan array binding signal (z-score),[28],-0.487
same,glycan array binding signal (z-score),[29],-0.41
same,glycan array binding signal (z-score),[30],-0.398
same,glycan array binding signal (z-score),[31],-0.447
same,glycan array binding signal (z-score),[32],0.234
same,glycan array binding signal (z-score),[33],-0.172
same,glycan array binding signal (z-score),[34],-0.156
same,glycan array binding signal (z-score),[35],-0.092
same,glycan array binding signal (z-score),[36],-0.456
same,glycan array binding signal (z-score),[37],0.096
same,glycan array binding signal (z-score),[38],-0.075
